Results reported in the supplement of paper PMC4967469.
The IC50 comes from the fitted curve, where viability falls to half of the control; a limit (>, <) means that the fit lies beyond the doses tested. AUC is the area under the same curve over the 256-fold range up to the top dose, as a fraction; the more sensitive the line, the further below 1. For part of these data: Any top dose called inferred comes from the curve model; the source does not state it.

Columns and labels:
Assay in all cases: Viability of human cancer cell lines after 72 h of drug (GDSC screen)
Salubrinal = compound: O=C(/C=C/c1ccccc1)NC(NC(=S)Nc1cccc2cccnc12)C(Cl)(Cl)Cl [Salubrinal]; settings: top dose 16 µM; top dose inferred
Experimental: (§1)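 Human cancer cell lines in 384-well plates, medium with 10% serum, drug for 72 h over a 256-fold dose range (nine 2-fold or five 4-fold steps up to the top dose). Adherent lines were fixed and stained with the nucleic acid dye Syto60, suspension lines read with resazurin; signal relative to control wells, capped at 0 and 100%. One two-parameter sigmoid per drug and line, fitted in a mixed model over all curves with the slope shared within a line.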

GW 441756 = compound: Cn1cc(/C=C2\C(=O)Nc3cccnc32)c2ccccc21 [GW 441756]; settings: top dose 2 µM; top dose inferred
Experimental: as §1

ABT-263 = compound: CC1(C)CCC(c2ccc(Cl)cc2)=C(CN2CCN(c3ccc(C(=O)NS(=O)(=O)c4ccc(N[C@H](CCN5CCOCC5)CSc5ccccc5)c(S(=O)(=O)C(F)(F)F)c4)cc3)CC2)C1 [ABT-263]; settings: top dose 2 µM; top dose inferred
Experimental: as §1

PIK-93 = compound: CC(=O)Nc1nc(C)c(-c2ccc(Cl)c(S(=O)(=O)NCCO)c2)s1 [PIK-93]; settings: top dose 20 µM
Experimental: as §1

piperlongumine = compound: COc1cc(/C=C/C(=O)N2CCC=CC2=O)cc(OC)c1OC [piperlongumine]; settings: top dose 10 µM
Experimental: as §1

GW843682X = compound: COc1cc2ncn(-c3cc(OCc4ccccc4C(F)(F)F)c(C(N)=O)s3)c2cc1OC [GW843682X]; settings: top dose 0.256 µM
Experimental: as §1

Row | Cell Line | AUC (Salubrinal) | IC50 (Salubrinal) [nM] | AUC (GW 441756) | IC50 (GW 441756) [nM] | AUC (ABT-263) | IC50 (ABT-263) [nM] | AUC (PIK-93) | IC50 (PIK-93) [nM] | AUC (piperlongumine) | IC50 (piperlongumine) [nM] | AUC (GW843682X) | IC50 (GW843682X) [nM]
1 | COR-L279 (small cell lung carcinoma, suspension) | 0.887 | 14500 | 0.991 | > 2000 | 0.671 | 353 | 0.589 | 2120 | 0.926 | > 10000 | 0.726 | 64.4
2 | RKO (large intestine, adherent) | 0.925 | > 16000 | 0.988 | > 2000 | 0.982 | > 2000 | 0.753 | 6260 | 0.788 | 4050 | 0.417 | 9.63
3 | NB(TU)1-10 (neuroblastoma, adherent) | 0.905 | > 16000 | 0.993 | > 2000 | 0.871 | 1460 | 0.73 | 5060 | 0.993 | > 10000 | 0.782 | 91.8
4 | BC-1 (B-cell lymphoma, suspension) | 0.902 | 15500 | 0.984 | > 2000 | 0.962 | > 2000 | 0.809 | 8580 | 0.733 | 2550 | 0.857 | 161
5 | SK-MEL-1 (melanoma, suspension) | 0.98 | > 16000 | 0.993 | > 2000 | 0.931 | > 2000 | 0.962 | > 20000 | 0.965 | > 10000 | 0.946 | > 256
6 | KGN (ovary, adherent) | 0.929 | > 16000 | 0.97 | > 2000 | 0.981 | > 2000 | 0.731 | 6640 | 0.682 | 2270 | 0.647 | 44.7
7 | WSU-DLCL2 (B-cell lymphoma, suspension) | 0.993 | > 16000 | 0.993 | > 2000 | 0.808 | 828 | 0.905 | 19000 | 0.766 | 3110 | 0.887 | 202
8 | KARPAS-422 (B-cell lymphoma, suspension) | 0.931 | > 16000 | 0.959 | > 2000 | 0.765 | 723 | 0.687 | 4140 | 0.808 | 5070 | 0.835 | 166
9 | NCI-H1975 (lung adenocarcinoma, adherent) | 0.931 | > 16000 | 0.877 | > 2000 | 0.947 | > 2000 | 0.861 | > 20000 | 0.72 | 2910 | 0.657 | 46.8
10 | OCI-AML5 (acute myeloid leukaemia, suspension) | 0.923 | > 16000 | 0.721 | 494 | 0.64 | 294 | 0.383 | 616 | 0.807 | 4590 | 0.562 | 23.3
11 | OCUB-M (breast, adherent) | 0.841 | 9000 | 0.985 | > 2000 | 0.979 | > 2000 | 0.605 | 2330 | 0.709 | 2200 | 0.446 | 11.6
12 | LB373-MEL-D (melanoma, adherent) | 0.981 | > 16000 | 0.942 | > 2000 | 0.981 | > 2000 | 0.878 | 19700 | 0.839 | 6580 | 0.798 | 119
13 | RPMI-8402 (T-cell lymphoblastic leukaemia, suspension) | 0.953 | > 16000 | 0.989 | > 2000 | 0.692 | 389 | 0.276 | 328 | 0.81 | 4240 | 0.276 | 4.19
14 | SUP-T1 (T-cell lymphoblastic leukaemia, suspension) | 0.975 | > 16000 | 0.98 | > 2000 | 0.684 | 387 | 0.644 | 3000 | 0.818 | 5000 | 0.988 | > 256
15 | BT-474 (breast, adherent) | 0.952 | > 16000 | 0.965 | > 2000 | 0.982 | > 2000 | 0.726 | 5980 | 0.81 | 6070 | 0.946 | > 256
16 | NCI-SNU-5 (stomach, suspension) | 0.936 | > 16000 | 0.936 | > 2000 | 0.86 | 1720 | 0.974 | > 20000 | 0.802 | 5020 | 0.684 | 52.8
17 | CAS-1 (glioma, adherent) | 0.959 | > 16000 | 0.982 | > 2000 | 0.976 | > 2000 | 0.823 | 18000 | 0.857 | > 10000 | 0.958 | > 256
18 | PF-382 (T-cell lymphoblastic leukaemia, suspension) | 0.935 | > 16000 | 0.989 | > 2000 | 0.748 | 574 | 0.432 | 835 | 0.983 | > 10000 | 0.433 | 10.7
19 | GI-ME-N (neuroblastoma, adherent) | 0.81 | 12400 | 0.967 | > 2000 | 0.976 | > 2000 | 0.558 | 1900 | 0.571 | 1050 | 0.722 | 86.9
20 | KURAMOCHI (ovary, adherent) | 0.945 | > 16000 | 0.903 | > 2000 | 0.927 | > 2000 | 0.781 | 9700 | 0.843 | 8800 | 0.546 | 21.8
21 | KP-N-YN (neuroblastoma, adherent) | 0.987 | > 16000 | 0.96 | > 2000 | 0.618 | 274 | 0.957 | > 20000 | 0.811 | 5950 | 0.967 | > 256
